Common to all, as to experiment: Primary Screen for Target Class Profiling of Small Molecule Inhibitors of Methyltransferases
Assay [1] has as its target Glycine N-methyltransferase (Homo sapiens) (UniProt Q14749). Conditions: purified enzyme, MTase-Glo SAH luminescence; measured here: GNMT inhibition; at 40 µM; stronger effect = lower value. The procedure, abridged:
(§1)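 Each enzyme was assayed with SAM and its substrate. SAH formation detected by MTase-Glo luminescence; single-point 40 uM screen[…].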

Assay [2] addresses Guanidinoacetate N-methyltransferase (Homo sapiens) (UniProt Q14353). Conditions: purified enzyme, MTase-Glo SAH luminescence; measured here: GAMT inhibition; at 40 µM; stronger effect = lower value. The procedure, abridged:
as §1

The target in assay [3] is Histamine N-methyltransferase (Homo sapiens) (UniProt P50135). The following applies: purified enzyme, MTase-Glo SAH luminescence; measured here: HNMT inhibition; at 40 µM; stronger effect = lower value. The procedure, abridged:
as §1

In assay [4] the target is Nicotinamide N-methyltransferase (Homo sapiens) (UniProt P40261). The following applies: purified enzyme, MTase-Glo SAH luminescence; measured here: NNMT inhibition; at 40 µM; stronger effect = lower value. The procedure, abridged:
as §1

Assay [5] concerns the target Phenylethanolamine N-methyltransferase (Homo sapiens) (UniProt P11086). Conditions: purified enzyme, MTase-Glo SAH luminescence; measured here: PNMT inhibition; at 40 µM; stronger effect = lower value. The procedure, abridged: as §1

This is one part of the list. The main result of the screen is listed elsewhere. These columns were measured beside it and carry no call.
On the % scale 0 is the no-effect control and ±100 the full control effect.

On to `O=C(Nc1ccccc1Br)N1Cc2c(sc3c2CCCC3)-n2cccc2C1c1ccccc1` (stereo not given), for which the activity change, negative = inhibition in assay [1] is -1.42%; in assay [2], 0%; in assay [3], -1.27%; in assay [4], -0.231%; in assay [5], 4.37%.
With `Cc1cccc(Cn2nc3n(CCC(C)C)c(=O)c4ccccc4n3c2=O)c1`, the activity change, negative = inhibition in assay [1] is -2.14%; in assay [2], 0%; in assay [3], 4.38%; in assay [4] it was -7.47%; in assay [5], -1.8%.
Regarding `COc1cc2nccc(Oc3ccc(NC(=O)NC4CC4)c(Cl)c3)c2cc1C(N)=O`, the activity change, negative = inhibition was -6.83% in assay [1]; 7.35% in assay [2]; 2.2% in assay [3]; -16.6% in assay [4]; 4.68% in assay [5].
The corresponding values for `CC(=O)O[C@@H]1C[C@@]2(C)C(CC[C@]3(C)C2CC=C2C4CC(C)(C)CC[C@]4(C(=O)O)CC[C@]23C)C(C)(C)[C@H]1O` (stereo not given in full) are -1.66%, -5.7%, 4.46%, -24.5% and -9.14%.
In the same order, the values of `COc1ccccc1CC(=O)N1CCCc2ncc(C(=O)Nc3cccc(Cl)c3)cc21` are -5.66%, 0.1%, -73.4%, -5.99% and -6.26%.
Take `CC(C)CNC(=O)c1ccc2c(=O)n(C)c3nn(CC(=O)NCc4ccc(Cl)cc4)c(=O)n3c2c1`: the activity change, negative = inhibition in assay [1] worked out at 4.69%; in assay [2] it was 0.723%; in assay [3] it was 7.74%; in assay [4], 6.55%; in assay [5] it was 5.19%.
The corresponding values for `CCOC(=O)C1CCN(S(=O)(=O)c2ccc3[nH]c(=O)[nH]c3c2)CC1` are 12.1%, 1.86%, 9.43%, 7.26% and 5.57%.
As to `CCCn1c(=O)c2ccc(C(=O)NC(C)CC)cc2n2c(SCC(=O)c3ccc(OC)cc3)nnc12` (stereo not given), the activity change, negative = inhibition in assay [1] is 2.45%; in assay [2], 0%; in assay [3], 0.831%; in assay [4], -1.27%; in assay [5], 3.37%.
Regarding `O=C(O)Cc1ccc2oc(-c3ccc(NC(=O)/C=C/c4ccc(Br)cc4)c(F)c3)nc2c1`, the activity change, negative = inhibition in assay [1] is 7.49%; in assay [2] it was 7.19%; in assay [3], 5.81%; in assay [4] it was -6.83%; in assay [5], 3.56%.
As to `c1cc(OCCCN2CCCCC2)ccc1CN1CCCCC1`, the activity change, negative = inhibition in assay [1] was -3.22%; in assay [2], -13.5%; in assay [3] it was -66.3%; in assay [4], -21.4%; in assay [5], -3.92%.
In the same order, the values of `O=C1c2cc(N3CCOCC3)nc(-c3cccc(CO)c3)c2CN1c1ccccc1` are -6.73%, 0.097%, -0.216%, -5.15% and -0.892%.
With `CCn1c(=O)[nH]c2cc(Cl)c(Cl)cc21`, the activity change, negative = inhibition is -10.2% in assay [1]; 9.49% in assay [2]; 3.18% in assay [3]; -7.21% in assay [4]; 4.53% in assay [5].
Turning to `CCCCNC(=O)c1cc2n(n1)CC(C)(C(=O)NCc1ccc(F)cc1)N(C)C2=O` (stereo not given), the activity change, negative = inhibition was 1.89% in assay [1]; 4.09% in assay [2]; -1.53% in assay [3]; 1.06% in assay [4]; -1.82% in assay [5].
As to `CN1CCN(CCCNC(=O)C2(CCO)CCN(Cc3ccccc3)C2)CC1` (stereo not given), the activity change, negative = inhibition in assay [1] is -2.69%; in assay [2], -0.965%; in assay [3], -0.758%; in assay [4], 3.8%; in assay [5] it was 2.27%.
As to `COc1ncccc1-c1n[nH]c2c1CC(=O)N(Cc1ccccc1)C2`, the activity change, negative = inhibition was -8.68% in assay [1]; -10.7% in assay [2]; -3.72% in assay [3]; -17.9% in assay [4]; -6.55% in assay [5].
As to `O=C(NC1CC1)[C@@H]1CN(CCCc2ccccc2)C[C@H]1CO`, the activity change, negative = inhibition in assay [1] is -10.4%; in assay [2], -4.85%; in assay [3], -8.49%; in assay [4] it was -6.93%; in assay [5] it was -10.6%.
Regarding `CC1CCCCC1NC(=O)C1(C)Cn2c(cc3sccc32)C(=O)N1Cc1ccc(Cl)cc1` (stereo not given), the activity change, negative = inhibition in assay [1] was 4.58%; in assay [2], -33%; in assay [3], 6.96%; in assay [4], 1.14%; in assay [5], 1.49%.
`Cc1oc(-c2ccccc2)nc1CN1CCCC(C(=O)N2CCC(c3nc(C(=O)N4CCCC4)c(C)o3)CC2)C1` (stereo not given): the activity change, negative = inhibition in assay [1] is -10.8%; in assay [2] it was -6.71%; in assay [3] it was -9.51%; in assay [4], -19.4%; in assay [5] it was -6.77%.
As to `COCc1nc(CCNS(=O)(=O)c2cccc(OC)c2)no1`, the activity change, negative = inhibition in assay [1] is -2.22%; in assay [2], 0.796%; in assay [3], 0.33%; in assay [4], 0.399%; in assay [5], 3.28%.
As to `O=C(O)c1ccnc2cc(C(OCC3CCC(F)(F)CC3)c3ccccc3Cl)[nH]c12` (stereo not given), the activity change, negative = inhibition in assay [1] was 2.94%; in assay [2], 5.47%; in assay [3], 4.93%; in assay [4] it was -16.9%; in assay [5], -1.37%.
With `C=CCC/C=C/C#CCCCCCCCC[C@H]1C(=O)O[C@H](C)[C@@H]1O`, the activity change, negative = inhibition in assay [1] was 6.45%; in assay [2] it was 1.67%; in assay [3], 9.99%; in assay [4], -14.4%; in assay [5] it was -4.54%.
`COc1cc(NS(=O)(=O)c2cc3c(cc2Cl)n(C)c(=O)n3C)cc(OC)c1`: the activity change, negative = inhibition in assay [1] was 11%; in assay [2], 0%; in assay [3], 10.9%; in assay [4] it was 2.71%; in assay [5], 9.17%.
The corresponding values for `CCCn1c(=O)c2ccccc2n2c(SCC(=O)Nc3ccc(C(C)C)cc3)nnc12` are -4.32%, 0.53%, 6.04%, -10.4% and 3.45%.
Turning to `C[C@@H]1CC[C@]2(C(=O)O)CC[C@]3(C)C(=CCC4[C@@]5(C)C[C@@H](O)[C@@H](O)C(C)(C)C5CC[C@]43C)C2[C@]1(C)O` (stereo not given in full), the activity change, negative = inhibition in assay [1] was 0.031%; in assay [2] it was -1.3%; in assay [3] it was 6.4%; in assay [4] it was -11.1%; in assay [5] it was -5.6%.
For the molecule `CCN(CC)CCNC(=O)CCCc1nnc2n3nc(-c4ccccc4)nc3c3ccccc3n12`, the activity change, negative = inhibition in assay [1] is -6.94%; in assay [2] it was 1.92%; in assay [3], -62%; in assay [4], 6.7%; in assay [5] it was -9.16%.
In the same order, the values of `CC1CCC(NC(=O)C2(C)Cn3c(cc4sccc43)C(=O)N2Cc2ccccc2Cl)CC1` (stereo not given) are -0.858%, 0%, 2.96%, -2.28% and 0.057%.
For `Cc1cc(C(=O)N2CCC(OCCOc3ccc(F)cc3)CC2)nn1C`, the activity change, negative = inhibition was -2.06% in assay [1]; -1.03% in assay [2]; 1.68% in assay [3]; -4.34% in assay [4]; -2.7% in assay [5].
Regarding `CC(C)CN1CCN(c2nc(CCN)nc3ccccc23)CC1CCO` (stereo not given), the activity change, negative = inhibition in assay [1] is -6.47%; in assay [2], -8.58%; in assay [3] it was -4.04%; in assay [4], -17.5%; in assay [5] it was -19.4%.
As to `COc1ccccc1Oc1c(NS(=O)(=O)c2ccc(C)cn2)nc(-c2ccncc2)nc1OC`, the activity change, negative = inhibition was -9.11% in assay [1]; 1.8% in assay [2]; 6.76% in assay [3]; -16.8% in assay [4]; -4.23% in assay [5].
As for `Cc1ccc(CN2C(=O)c3ccc(-c4ccco4)n3CC2(C)C(=O)NC2CCC(C)CC2)cc1` (stereo not given), the activity change, negative = inhibition is -1.23% in assay [1]; 0% in assay [2]; 1.85% in assay [3]; -1.82% in assay [4]; -3.05% in assay [5].

For the origin of these results see PubChem BioAssay AID1745853 (National Center for Advancing Translational Sciences (NCATS), 2022).
